# Laboratory results published in the supplement of paper PMC4166925.
# ± gives the standard deviation of the averaged measurements. Over roughly 33,000 sequences, “E-score (dimensionless, -0.5 to 0.5)” has its median near -0.049; the highest 2% begin near 0.37. Some of the results follow.
# Tested on: T1, PmTbr T-box DNA-binding domain (GST fusion)
# T1 sequence: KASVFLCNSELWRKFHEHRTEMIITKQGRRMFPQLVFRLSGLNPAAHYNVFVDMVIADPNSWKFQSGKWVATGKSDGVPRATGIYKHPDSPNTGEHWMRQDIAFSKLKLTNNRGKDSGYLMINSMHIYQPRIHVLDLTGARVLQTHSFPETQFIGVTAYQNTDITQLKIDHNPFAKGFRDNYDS
# Assay: PBM E-score of 8-mer (E-score (dimensionless, -0.5 to 0.5)); Tbr is Tbrain of the sea star Patiria miniata (Pm) or the sea urchin Strongylocentrotus purpuratus (Sp); higher = stronger binding preference; most listed sequences are background and not binding sites
# Conditions: the construct has about 5 more residues each side
# Procedure: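 Universal protein-binding microarray (Agilent AMADID 016060, 60-bp probes with a 35-bp variable region) incubated with 200 nM GST-fused Patiria miniata Tbr T-box DNA-binding domain (residues 272-466) in PBS pH 7.5. Scored for every ungapped 8-mer (given with its reverse complement) by the Universal PBM Analysis Suite as E-score (modified Wilcoxon-Mann-Whitney enrichment, range -0.5 to 0.5; >0.45 counts as bound) and Z-score of median probe intensity. Two replicate arrays (datasets 1 and 2).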
row,Sequence,PBM E-score of 8-mer
1,GAGGCAAC,0.004 ± 0.034
2,ACGTCCAA,-0.167 ± 0.018
3,GTTGGTAA,-0.0132 ± 0.0082
4,AAGGGATG,-0.275 ± 0.013
5,TCCACCGA,-0.118 ± 0.049
6,CGCTGCTA,-0.189 ± 0.036
7,CGTGGAGA,-0.109 ± 0.058
8,ATGAGCGG,-0.141 ± 0.023
9,ACGATTCG,0.125 ± 0.026
10,GGCTTAAC,0.054 ± 0.038
11,TACTGCTA,-0.0813 ± 0.025
12,AGGGCCCT,-0.344 ± 0.072
13,ATCTGCTC,-0.303 ± 0.025
14,AAACACAT,0.225 ± 0.049
15,AAATGACT,-0.177 ± 0.018
16,GCAGGTTA,-0.0791 ± 0.045
17,ACTGCGGG,-0.00779 ± 0.061
18,ATCAGACG,-0.248 ± 0.03
19,ATCCTCGG,-0.299 ± 0.075
20,AGTCGTAC,-0.128 ± 0.048
21,TGGAGCAA,-0.0777 ± 0.022
22,AGAATAGC,0.0843 ± 0.0062
23,CCCAATAA,-0.0316 ± 0.069
24,ACGAGGGG,-0.153 ± 0.0082
25,GCGTTGAC,0.29 ± 0.0058

row,Sequence,PBM E-score of 8-mer
1,AAAGTCAT,-0.198 ± 0.053
2,AGCCATTG,-0.194 ± 0.01
3,CACGAGGG,0.11 ± 0.017
4,AGGACTAA,-0.132 ± 0.058
5,AGATCCAC,0.0223 ± 0.095
6,AATGTGAC,0.352 ± 0.014
7,GAGCGGAA,-0.111 ± 0.042
8,ACAGGTAG,0.175 ± 0.041
9,AGCAAGGA,0.00816 ± 0.093
10,CGTGTGCA,0.0443 ± 0.011
11,AAACGCGC,0.169 ± 0.0085
12,CACCCGTC,0.251 ± 0.044
13,CAAGTGGG,0.211 ± 0.016
14,AAGTGTAA,0.381 ± 0.05
15,ACTCACTG,-0.0228 ± 0.028
16,CAACGGCC,0.107 ± 0.051
17,AACAACAA,0.0602 ± 0.04
18,CAATGCGA,0.0627 ± 0.02
19,CGCCCAAC,0.0472 ± 0.046
20,ACCGCTGG,0.0975 ± 0.0091
21,AGGGACAG,-0.136 ± 0.046
22,AGAGTAAT,-0.0574 ± 0.05
23,TCATTGCA,-0.111 ± 0.14
24,GAACTCGC,0.2583 ± 0.0016
25,TCTCAACA,0.125 ± 0.071

row,Sequence,PBM E-score of 8-mer
1,CCCGCGCC,0.112 ± 0.038
2,AGAACGTA,-0.214 ± 0.057
3,AATTAGCG,0.313 ± 0.018
4,ACTTCCAG,0.0388 ± 0.00075
5,AGTAGCCG,-0.167 ± 0.002
6,CTAGCTCC,-0.0784 ± 0.035
7,AGGTCCGA,-0.203 ± 0.063
8,GAAGAGGA,-0.173 ± 0.037
9,ACTCTTCT,-0.264 ± 0.02
10,AATGTCTC,-0.174 ± 0.042
11,ATTCTAAG,-0.0503 ± 0.0011
12,CCCTCCCC,0.0115 ± 0.024
13,AACAATGA,0.0586 ± 0.015
14,CCACCCCG,0.235 ± 0.033
15,CCTCAAAC,-0.0981 ± 0.017
16,AGACGACA,-0.00785 ± 0.026
17,ATATCTGA,-0.307 ± 0.032
18,ACCATAAG,-0.205 ± 0.034
19,GAGATTGA,-0.0419 ± 0.051
20,CATTCCCA,-0.0846 ± 0.088
21,ATGCCGCA,-0.0107 ± 0.049
22,ACCTGGAA,0.218 ± 0.051
23,TTCACAAA,0.204 ± 0.039
24,CAGGGATA,-0.326 ± 0.061
25,CAGACGTA,-0.231 ± 0.053

row,Sequence,PBM E-score of 8-mer
1,GACCAAGA,-0.0649 ± 0.057
2,CCCAGCTA,-0.183 ± 0.034
3,GCTCATCC,-0.161 ± 0.023
4,AAACCGCC,-0.0851 ± 0.023
5,ACGCCCCC,-0.101 ± 0.068
6,CGCACGTA,0.13 ± 0.011
7,TTACCTAA,-0.0657 ± 0.073
8,GGGCGTAC,-0.212 ± 0.088
9,GAATATTA,0.0144 ± 0.0076
10,CCAATGCG,-0.127 ± 0.068
11,ACCATTTA,-0.0394 ± 0.087
12,CTGCGGTA,-0.278 ± 0.07
13,GTTGAAGA,-0.00415 ± 0.042
14,AACACTTA,0.42 ± 0.019
15,GCGAAAAC,0.27 ± 0.057
16,CATGGATA,-0.114 ± 0.075
17,AATAACGT,-0.105 ± 0.05
18,ATAACAGG,0.156 ± 0.033
19,CGTTAACA,0.372 ± 0.044
20,CGGGAGTC,-0.155 ± 0.0094
21,GAGCTAGC,-0.00632 ± 0.026
22,AAGATGAG,-0.231 ± 0.067
23,CTCGCTAC,0.0679 ± 0.05
24,GATAGTGA,0.2087 ± 0.0014
25,CCAAGGGG,-0.193 ± 0.035

row,Sequence,PBM E-score of 8-mer
1,GAGCCATA,-0.21 ± 0.0091
2,AAACCATA,-0.137 ± 0.061
3,AAGAGCAC,-0.201 ± 0.013
4,CCACGCGA,0.115 ± 0.034
5,CGTGTCGC,0.295 ± 0.023
6,ACAGTCAG,-0.169 ± 0.02
7,ACAATTAA,0.06793 ± 0.00057
8,CACCAACC,0.149 ± 0.056
9,AGAAGCGA,0.0714 ± 0.048
10,CAATCAGA,-0.157 ± 0.01
11,CACACTGG,0.156 ± 0.039
12,TGTAGTAA,-0.169 ± 0.022
13,AATTGAAA,-0.311 ± 0.028
14,CATCATTC,-0.0552 ± 0.075
15,ATGTGAAG,0.142 ± 0.035
16,GATAATCA,0.0401 ± 0.032
17,CACTGAGG,0.0486 ± 0.064
18,ATTCTGAC,0.122 ± 0.042
19,CCAGAATC,-0.0577 ± 0.0096
20,GCTCTAAC,0.0585 ± 0.0059
21,CAGAAGTA,-0.223 ± 0.0053
22,CTCGGCTC,-0.036 ± 0.046
23,GCAGCCAA,0.0542 ± 0.051
24,CATGGGGC,-0.268 ± 0.11
25,ATGAGTGA,0.0877 ± 0.014

row,Sequence,PBM E-score of 8-mer
1,AGGTAAGC,-0.258 ± 0.036
2,TCAACCCA,-0.169 ± 0.013
3,CCAGCCGG,-0.000265 ± 0.042
4,TCAGTGGA,-0.213 ± 0.02
5,ACAAACGA,0.0104 ± 0.028
6,TCAAAAAA,-0.181 ± 0.07
7,AGTGATAG,0.23 ± 0.018
8,TGCACGAA,-0.109 ± 0.05
9,ACTGTTAT,0.0989 ± 0.046
10,AAGTAACT,0.112 ± 0.057
11,ATCTGCAT,-0.08088 ± 0.00077
12,GCCTCACA,0.224 ± 0.031
13,ATCGACCG,-0.064 ± 0.018
14,CGAGTTGC,0.135 ± 0.035
15,CGAAATCA,0.131 ± 0.011
16,CGAGAAGA,0.0423 ± 0.037
17,AAGGCGAT,0.0522 ± 0.036
18,CTGGGCGA,-0.0186 ± 0.043
19,ATCGCGAA,0.335 ± 0.046
20,GCCTTGAC,-0.0059 ± 0.00044
21,AAGTAACA,0.224 ± 0.08
22,AAAAAGGT,0.0924 ± 0.057
23,ACTACGAG,0.0557 ± 0.059
24,CCGCTGAA,-0.279 ± 0.04
25,CCTGCTCA,-0.197 ± 0.026

row,Sequence,PBM E-score of 8-mer
1,AATCGCAT,0.0479 ± 0.038
2,ATTGAAGC,-0.0742 ± 0.045
3,CCAACACA,0.241 ± 0.023
4,TATTTGAA,-0.163 ± 0.018
5,AAGGTCTA,-0.334 ± 0.059
6,ACTCATAC,0.0906 ± 0.014
7,CTTAGACA,0.0724 ± 0.066
8,CTAGTAGC,-0.113 ± 0.066
9,CCAGCGGC,0.121 ± 0.067
10,GCCCAGAA,-0.0796 ± 0.018
11,CCTTAGCG,0.198 ± 0.062
12,GCGCGCAC,0.155 ± 0.026
13,CGGTGACG,0.179 ± 0.047
14,CTCATCTC,-0.018 ± 0.016
15,ATAACTAT,-0.00859 ± 0.12
16,TACTAATA,-0.00424 ± 0.037
17,GGCATGAC,0.133 ± 0.049
18,AATGCGTG,0.194 ± 0.024
19,AATCCGGA,-0.0907 ± 0.031
20,CGCCTCAA,0.0195 ± 0.0091
21,CACTTTTA,0.203 ± 0.003
22,CGTGTGTA,0.00111 ± 0.014
